Source: US10005846B2, “Anti-transglutaminase 2 antibodies” (MEDICAL RESEARCH COUNCIL TECHNOLOGY, priority 2012, dated 2018)
Changes are numbered by the printed parent chain.

T1: human TG2 (Homo sapiens, UniProt P21980)
T1 sequence (P21980 1-687): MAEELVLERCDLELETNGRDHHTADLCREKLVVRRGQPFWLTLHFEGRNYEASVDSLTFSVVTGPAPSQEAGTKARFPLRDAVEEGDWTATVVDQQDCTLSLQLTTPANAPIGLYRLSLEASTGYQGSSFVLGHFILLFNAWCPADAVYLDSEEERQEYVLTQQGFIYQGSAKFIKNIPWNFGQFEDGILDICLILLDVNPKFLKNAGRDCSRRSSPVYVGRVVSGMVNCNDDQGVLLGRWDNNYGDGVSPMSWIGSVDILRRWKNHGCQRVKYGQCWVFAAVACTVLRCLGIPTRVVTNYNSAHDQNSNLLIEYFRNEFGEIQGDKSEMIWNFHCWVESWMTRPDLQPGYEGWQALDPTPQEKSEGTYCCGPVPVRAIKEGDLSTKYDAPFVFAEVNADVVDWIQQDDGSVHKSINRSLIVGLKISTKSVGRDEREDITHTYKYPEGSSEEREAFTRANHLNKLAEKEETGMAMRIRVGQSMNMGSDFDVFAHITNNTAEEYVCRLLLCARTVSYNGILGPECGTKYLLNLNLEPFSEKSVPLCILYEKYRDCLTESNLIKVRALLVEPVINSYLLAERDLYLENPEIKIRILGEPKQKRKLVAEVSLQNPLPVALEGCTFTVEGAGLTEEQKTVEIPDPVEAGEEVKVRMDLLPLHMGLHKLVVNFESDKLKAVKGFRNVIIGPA

T2: rat TG2 (Rattus norvegicus, UniProt Q9WVJ6)
T2 sequence (Q9WVJ6 1-686): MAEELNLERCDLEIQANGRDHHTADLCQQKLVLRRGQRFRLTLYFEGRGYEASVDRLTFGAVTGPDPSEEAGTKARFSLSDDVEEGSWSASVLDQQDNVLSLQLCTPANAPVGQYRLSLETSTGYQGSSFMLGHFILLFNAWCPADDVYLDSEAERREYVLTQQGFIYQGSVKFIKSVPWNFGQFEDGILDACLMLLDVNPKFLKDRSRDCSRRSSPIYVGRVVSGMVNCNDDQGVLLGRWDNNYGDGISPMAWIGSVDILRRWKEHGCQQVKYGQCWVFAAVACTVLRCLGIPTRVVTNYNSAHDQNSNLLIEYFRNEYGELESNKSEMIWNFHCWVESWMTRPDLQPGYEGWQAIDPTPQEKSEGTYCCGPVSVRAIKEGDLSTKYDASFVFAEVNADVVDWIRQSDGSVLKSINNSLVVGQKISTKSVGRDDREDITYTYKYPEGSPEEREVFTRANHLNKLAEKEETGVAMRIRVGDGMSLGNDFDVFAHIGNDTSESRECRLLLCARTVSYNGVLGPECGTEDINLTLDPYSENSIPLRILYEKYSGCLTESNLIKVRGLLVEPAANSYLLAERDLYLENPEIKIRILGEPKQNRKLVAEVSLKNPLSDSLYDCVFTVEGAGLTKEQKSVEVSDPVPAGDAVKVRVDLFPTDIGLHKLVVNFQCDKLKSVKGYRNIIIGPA

B1: DH2: murine monoclonal anti-TG2 IgG, Group 3 (amino acids 450 to 467); VL SEQ ID NO: 89, VH SEQ ID NO: 90 (antibody, V domains shown)
VH: QVTLKESGPGILQPSQTLSLTCSFSGFSLSTSGMGVSWIRQPSGKGLEWLAHIYWDDDKRYNPSLKSRLTISKDTSSNQVFLKITSVDTADTATYYCARSGTTAPFAYWGQGTLVTVSA
VL: QIVLTQSPAIMSASPGEKVTMTCSASSSVSYMYWYQQKPGSSPRLLIYDTSNLASGVPVRFSGSGSGTSYSLTISRMEAEDAATFYCQQWSSSPLTFGAGTKLELK
modifications: DH-2 heavy chain variable region; DH-2 light chain variable region
B2: DD9: murine monoclonal anti-TG2 IgG, Group 3 (amino acids 450 to 467); VL SEQ ID NO: 87, VH SEQ ID NO: 88 (antibody, V domains shown)
VH: B1 VH with P42S, L69I, T75S, G101W, Y108F
VL: B1 VL with S30D, E78G, F85Y, S91N
modifications: DD-9 heavy chain variable region; DD-9 light chain variable region

Legend:
Format in all cases: biochemical
human TG2 [1] = target: T1, human TG2; assay: Fluorescence-based transglutaminase assay (dansylated lysine into N,N-dimethylated casein), human TG2; set-up: purchased Zedira GmbH T002; details: 1 nM human TG2
Protocol: Transglutaminase activities of purified human (Zedira) or cynomogolus monkey TG2 enzymes (Trenzyme) were measured by incorporation of dansylated lysine K×D (Zedira) into N,N-dimethylated casein (DMC, Sigma). Human or cynomogolus monkey TG2 were diluted in transamidation buffer (25 mM HEPES pH 7.4 containing 250 mM NaCl, 2 mM MgCl2, 5 mM CaCl2, 0.2 mM DTT and 0.05% v/v Pluronic F-127) to 1 nM and 10 nM respectively and mixed with various concentrations of protein-A purified murine, chimeric or humanised TG2 antibodies for 180 min at room temperature in 384-well black microtiter plates (Corning). Reactions were initiated by addition of DMC and K×D to a final concentration of 10 uM and 20 uM respectively and a final reaction volume of 30 ul, and allowed to proceed at RT for 180 min and the increase in fluorescence (RFU) (excitation at 280 nm, emission 550 nm) monitored using a Tecan Safire^2 plate reader. Data were normalised to percentage activity where % activity=(RFU test antibody−RFU low controls)/RFU high controls−RFU low controls)×100, where low controls contained all components except enzyme and high controls contained all components except antibody.
Antibody dose response curves were plotted using GraphPad prism software and fitted using a 4-parameter logistical model to return IC50 and other statistical parameters. The results are illustrated in FIGS. 29 to 33.

human TG2 [2] = target: T1, human TG2; assay: 3H-putrescine incorporation TG activity assay with recombinant human TG2; details: initial screen of conditioned medium, 100 ng of TG2
Protocol: (§1) To determine an IC50 value for each antibody against human, rat and mouse the ^3H Putrescine assay was used. 100 ng of human TG2 or 25 ng of mouse and rat TG2 was used to generate a reaction where approximately 3000 cpm of Putrescine were incorporated per hour in 10 ul of the reaction mixture. Serial dilutions of each antibody were then applied starting from adding 500 ng (5 ug/ml final concentration) to the reaction mixture and incubated with the TG2 for 20 minutes prior to activating the reaction. IC50 values were calculated by determining the concentration at which the enzymatic rate of reaction was reduced by 50% using an appropriate curve fit in graphpad prism. Values are expressed as the amount of IgG in […] in the reaction that would inhibit 1 ng of TG2.
(§2) TG activity is measured by the Ca^2+ dependent incorporation of ^3H-putrescine into N′,N′-dimethylcasein. Recombinant human TG2 (100 ng) was pre-incubated for twenty minutes at room temperature with the test sample (conditioned medium or purified IgG) before starting the reaction. […] The rate of reaction was calculated. […]

rat TG2 = target: T2, rat TG2; assay: 3H-putrescine incorporation TG activity assay with rat TG2; details: amount of IgG required to inhibit 1 ng of TG2; 25 ng rat TG2
Protocol: as §1, §2

| Molecule | inhibition of human TG2 transamidation (in words) (human TG2 [1]) | hybridoma supernatant ability to inhibit TG2 activity (human TG2 [2]) | IC50 against rat TG2 (rat TG2) [µg/mL] |
| --- | --- | --- | --- |
| B1 | consistently inhibited human TG2 transamidation, but with lower potency than group 1 antibodies | able to inhibit TG2 activity | 0.223 |
| B2 | consistently inhibited human TG2 transamidation, but with lower potency than group 1 antibodies | able to inhibit TG2 activity | – |
